We go through 1 molecule from the supplement of paper PMC8728848.

Test in all cases: glycan array binding signal (z-score within array); higher = stronger binding
Holding throughout (conditions): glycan notation: IUPAC condensed, linker removed

Experiment [1] concerns the target Gal(b1-4)GlcNAc(b1-2)Man(a1-6)[GlcNAc(b1-2)Man(a1-3)]Man(b1-4)GlcNAc(b1-4)GlcNAc. Summed up: (§1)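 Glycan array data came from 3228 arrays in the Consortium for Functional Glycomics database, and only arrays with an available protein sequence were kept. Glycan names were put into IUPAC-condensed notation, and columns mapping to the same glycan were averaged. The binding signal is a within-array Z-score, averaged across arrays of one protein sequence run at different concentrations or buffers and across linkers. A negative Z-score can be read as non-binding.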

Experiment [2] addresses Gal(b1-4)GlcNAc(b1-2)Man(a1-6)[Man(a1-3)]Man(b1-4)GlcNAc(b1-4)GlcNAc. Summed up:
as §1

The target of experiment [3] is Gal(b1-4)GlcNAc(b1-2)[Gal(b1-4)GlcNAc(b1-4)]Man(a1-3)[Gal(b1-4)GlcNAc(b1-2)Man(a1-6)]Man(b1-4)GlcNAc(b1-4)GlcNAc. Summed up: as §1
Experiment [4] addresses Gal(b1-4)GlcNAc(b1-2)[Gal(b1-4)GlcNAc(b1-4)]Man(a1-3)[Gal(b1-4)GlcNAc(b1-2)[Gal(b1-4)GlcNAc(b1-6)]Man(a1-6)]Man(b1-4)GlcNAc(b1-4)GlcNAc. Summed up:
as §1

The target in experiment [5] is Gal(b1-4)GlcNAc(b1-2)[Gal(b1-4)GlcNAc(b1-4)]Man(a1-3)[GlcNAc(b1-4)][Gal(b1-4)GlcNAc(b1-2)Man(a1-6)]Man(b1-4)GlcNAc(b1-4)GlcNAc. Summed up:
as §1

Experiment [6] addresses Gal(b1-4)GlcNAc(b1-2)[Gal(b1-4)GlcNAc(b1-4)]Man(a1-3)[GlcNAc(b1-4)][Gal(b1-4)GlcNAc(b1-2)[Gal(b1-4)GlcNAc(b1-6)]Man(a1-6)]Man(b1-4)GlcNAc(b1-4)GlcNAc. The procedure, abridged:
as §1

For experiment [7], the target named is Gal(b1-4)GlcNAc(b1-2)[Gal(b1-4)GlcNAc(b1-6)]Man(a1-6)[Gal(b1-4)GlcNAc(b1-2)Man(a1-3)]Man(b1-4)GlcNAc(b1-4)GlcNAc. Summed up:
as §1

The target in experiment [8] is Gal(b1-4)GlcNAc(b1-2)[Gal(b1-4)GlcNAc(b1-6)]Man(a1-6)[Gal(b1-4)GlcNAc(b1-2)Man(a1-3)]Man(b1-4)GlcNAc(b1-4)[Fuc(a1-6)]GlcNAc. Summed up:
as §1

Experiment [9] has as its target Gal(b1-4)GlcNAc(b1-2)[Gal(b1-4)GlcNAc(b1-6)]Man(a1-6)[GlcNAc(b1-4)][Gal(b1-4)GlcNAc(b1-2)Man(a1-3)]Man(b1-4)GlcNAc(b1-4)GlcNAc. The procedure, abridged:
as §1

In experiment [10] the target is Gal(b1-4)GlcNAc(b1-2)[Gal(b1-4)GlcNAc(b1-6)]Man(a1-6)[GlcNAc(b1-4)][Gal(b1-4)GlcNAc(b1-2)[Gal(b1-4)GlcNAc(b1-4)]Man(a1-3)]Man(b1-4)GlcNAc(b1-4)[Fuc(a1-6)]GlcNAc. The procedure, abridged: as §1
For experiment [11], the target named is Gal(b1-4)GlcNAc(b1-3)Gal(b1-3)GalNAc. The procedure, abridged: as §1
The target in experiment [12] is Gal(b1-4)GlcNAc(b1-3)Gal(b1-3)GlcNAc. The procedure, abridged:
as §1

The target in experiment [13] is Gal(b1-4)GlcNAc(b1-3)Gal(b1-4)Glc. Summed up:
as §1

Experiment [14] has as its target Gal(b1-4)GlcNAc(b1-3)Gal(b1-4)GlcNAc. Summed up:
as §1

Experiment [15] addresses Gal(b1-4)GlcNAc(b1-3)Gal(b1-4)GlcNAc(b1-2)Man(a1-3)[Gal(b1-4)GlcNAc(b1-3)Gal(b1-4)GlcNAc(b1-2)Man(a1-6)]Man(b1-4)GlcNAc(b1-4)GlcNAc. Summed up: as §1
The target of experiment [16] is Gal(b1-4)GlcNAc(b1-3)Gal(b1-4)GlcNAc(b1-2)Man(a1-3)[Gal(b1-4)GlcNAc(b1-3)Gal(b1-4)GlcNAc(b1-2)Man(a1-6)]Man(b1-4)GlcNAc(b1-4)[Fuc(a1-6)]GlcNAc. Summed up:
as §1

Experiment [17] addresses Gal(b1-4)GlcNAc(b1-3)Gal(b1-4)GlcNAc(b1-2)[Gal(b1-4)GlcNAc(b1-3)Gal(b1-4)GlcNAc(b1-6)]Man(a1-6)[Gal(b1-4)GlcNAc(b1-3)Gal(b1-4)GlcNAc(b1-2)Man(a1-3)]Man(b1-4)GlcNAc(b1-4)GlcNAc. Summed up: as §1
For experiment [18], the target named is Gal(b1-4)GlcNAc(b1-3)Gal(b1-4)GlcNAc(b1-2)[Gal(b1-4)GlcNAc(b1-3)Gal(b1-4)GlcNAc(b1-6)]Man(a1-6)[Gal(b1-4)GlcNAc(b1-3)Gal(b1-4)GlcNAc(b1-2)Man(a1-3)]Man(b1-4)GlcNAc(b1-4)[Fuc(a1-6)]GlcNAc. Summed up: as §1
The target in experiment [19] is Gal(b1-4)GlcNAc(b1-3)Gal(b1-4)GlcNAc(b1-3)Gal(b1-4)GlcNAc. The procedure, abridged: as §1
The target of experiment [20] is Gal(b1-4)GlcNAc(b1-3)Gal(b1-4)GlcNAc(b1-3)Gal(b1-4)GlcNAc(b1-2)Man(a1-3)[Gal(b1-4)GlcNAc(b1-3)Gal(b1-4)GlcNAc(b1-3)Gal(b1-4)GlcNAc(b1-2)Man(a1-6)]Man(b1-4)GlcNAc(b1-4)GlcNAc. The procedure, abridged: as §1
Experiment [21] addresses Gal(b1-4)GlcNAc(b1-3)Gal(b1-4)GlcNAc(b1-3)Gal(b1-4)GlcNAc(b1-2)Man(a1-3)[Gal(b1-4)GlcNAc(b1-3)Gal(b1-4)GlcNAc(b1-3)Gal(b1-4)GlcNAc(b1-2)Man(a1-6)]Man(b1-4)GlcNAc(b1-4)[Fuc(a1-6)]GlcNAc. Summed up:
as §1

In experiment [22] the target is Gal(b1-4)GlcNAc(b1-3)Gal(b1-4)GlcNAc(b1-3)Gal(b1-4)GlcNAc(b1-2)[Gal(b1-4)GlcNAc(b1-3)Gal(b1-4)GlcNAc(b1-3)Gal(b1-4)GlcNAc(b1-6)]Man(a1-6)[Gal(b1-4)GlcNAc(b1-3)Gal(b1-4)GlcNAc(b1-3)Gal(b1-4)GlcNAc(b1-2)Man(a1-3)]Man(b1-4)GlcNAc(b1-4)[Fuc(a1-6)]GlcNAc. The procedure, abridged:
as §1

Some of the results follow.

B1: Threefoil (Haloarcula marismortui) (protein)
chain: GSSHHHHHHHHHHSSGLVPRGSHMGDGYYKLVARHSGKALDVENASTSDGANVIQYSYSGGDNQQWRLVDLGDGYYKLVARHSGKALDVENASTSDGANVIQYSYSGGDNQQWRLVDLGDGYYKLVARHSGKALDVENASTSDGANVIQYSYSGGDNQQWRLVDL
For the molecule B1, the “glycan array binding signal (z-score)” value in [1] is 0.062; in experiment [2], -0.206; in experiment [3], 3.48; in experiment [4], 3.06; in experiment [5], 1.43; in [6], 8.13. For the same molecule, the “glycan array binding signal (z-score)” value in experiment [7] is 0.527; in experiment [8], 3.39; in experiment [9] it was 0.546; in experiment [10], 6.8; in [11], -0.036; in [12], -0.236. In addition, the “glycan array binding signal (z-score)” value is -0.048 in experiment [13]; -0.16 in experiment [14]; 1.2 in experiment [15]; 2.47 in experiment [16]; 0.631 in experiment [17]; 6.34 in [18]. Moreover, the “glycan array binding signal (z-score)” value in experiment [19] was -0.003; in experiment [20] it was 2.86; in experiment [21], 6.67; in experiment [22] it was 9.87.
